The values below come from the supplement of paper PMC11417369.

The list shows a part of the results.

The test system of the experiment is PfHDP1 homeodomain (GST-tagged). The experiment can be described thus: gcPBM binding intensity (ln(normalized median fluorescence intensity)); higher = stronger DNA binding. An outline of the steps: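 The highest Masliner-normalised natural-log median intensity across replicate spots of either probe orientation is reported as binding intensity. GST-tagged P. falciparum DNA-binding domains expressed in E. coli were applied for 1 h to an Agilent 4 × 180k array of primer-extended double-stranded 36-bp intergenic genomic probes plus negative controls, and bound protein was detected with Alexa488 anti-GST antibody and scanned at 488 nm.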
Consider “AATATTTTTAATTAATGTACATATTTATTATATAAA [XGTACX_site5112]”, for which the “gcPBM binding intensity (ln)” value was determined as 6.34.
The same measure for “TTTTTATGAATTCTTTTGTTAATAATAATATGTTGT [TGCATGCA_negctrl_site198]”: 6.55; for “TTTTAACGTAATTCAAATGAGCAGAATTTTTTAAAA [CACACA_negctrl_site1800]”: 6.28.
The same measure for “CTATTACAAAGAAATTGTACATATATATATAAAAAC [XGTACX_site8800]”: 6.81.
The same measure for “ATATATATATATGTACACATATATGTGTTTGTTTTT [GTGCAC_negctrl_site5]”: 8.99.
With “ATCTTTCAATAATTCACACATATATATATATATATA [CACACA_site4598]”, the “gcPBM binding intensity (ln)” value was 9.48.
Consider “TATAATAATACTTATTGTACTATTAGTTTAATTCAT [XGTACX_site6638]”, for which the “gcPBM binding intensity (ln)” value amounted to 6.15.
The result for “ATATATTATATATATAGTACGTATATAAATTTAATT [XGTACX_site5041]” reads 6.45.
With “CATGAATTTTTTTAATGTACATTCACATCATAAAAA [XGTACX_site7475]”, the “gcPBM binding intensity (ln)” value was found to be 6.78.
The result for “GAAACTATGTAATGCACACCAAAATAAAATTATTAA [CACACA_site1904]” reads 10.3.
The same measure for “TCTTCTTAACCAACTATGAAAAGGAAAAATATAACA [GTGCAC_negctrl_site565]”: 6.41; for “TTATTTTTATTATAAATTATAAAATATAAATAAATA [GTGCAC_negctrl_site616]”: 5.88; for “TAAATCCGCACGCACACACACATATTAATAAAAAAA [CACACA_site7800]”: 7.57.
The result for “ATTATAAAAAAGAAACGTACATATTTATTGTTTTTT [XGTACX_site2161]” reads 6.13; that for “TATATAAATATACACCCACACACATATATATATATA [CACACA_site9247]”, 9.17.
For the sequence “AATAATTTAATACATACACACGTATATCTTTTTTTT [CACACA_site8632]”, the “gcPBM binding intensity (ln)” value is 6.47.
The same measure for “TATATATATAACATATGTACATATATTTATAAATAC [XGTACX_site5484]”: 7.32; for “TATAAAAAAAAATGTGGTACATATTTCCATTTTCCA [XGTACX_site4571]”: 5.79.
Turning to “ATCGTAGTATAATATGAACACACACCCACCCACAAA [CACACA_site8616]”, the “gcPBM binding intensity (ln)” value stood at 8.14.
The same measure for “TATATTCCACTCATTGATTTTCTCTTCTCACAAAAA [CACACA_negctrl_site1016]”: 6.61; for “TACATTTAAAAAAAAACACACATATATATATATATA [CACACA_site2535]”: 9.39.
The same measure for “ATATATTTGTATAATAGTACGTACAGGCAAAATATA [XGTACX_site7396]”: 7.03; for “ATAATAATAATAAAAAGTACAAATTATTATATATAT [XGTACX_site5160]”: 6.97.
Regarding “ATATATAAATAATGTTGTACGTATTTCAAAAGTATG [XGTACX_site3363]”, the “gcPBM binding intensity (ln)” value came out at 6.42.
“TGTATGCTTACATAATGTACGGAAAAATAAAGGCAT [XGTACX_site6923]”: the “gcPBM binding intensity (ln)” value came out at 7.46.
The result for “TGCTCTCTCTTGTTGTGTACATAATACAATATATAT [XGTACX_site7427]” reads 7.68.
The same measure for “TATATAAGGAAATATTGTACTTTTATATTTATATTA [XGTACX_site3814]”: 6.04; for “ATATAAAAATATAATACACACATAAAATATATTATA [CACACA_site969]”: 6.52; for “AAAAAAAAAAAACACACACACACATACCCATACATA [CACACA_site5575]”: 6.75.
The same measure for “TTTCTTTTTATATTCACACATAAATATATATATATA [CACACA_site6053]”: 8.67; for “TATAAAAGTGGACACACACACATATATATATATATA [CACACA_site4673]”: 9.42; for “ACACATCAAATATAAAAAAAAAATAACTATAAATAA [CACACA_negctrl_site587]”: 6.21.
Take “TAATAAATAGGACACACACACATATTTATATATCAT [CACACA_site6771]”: the “gcPBM binding intensity (ln)” value is 6.77.
The result for “AATTTTTTTTTTTTGTTGCACTTTTAGAGTTTTAAT [GTGCAC_site9519]” reads 7.37.
The same measure for “CCTTTAAGCAAAAACACACACACATATTTATTTATA [CACACA_site6294]”: 6.72; for “TTGCAAAATTGTTTTATCACAAATATATACTTAATA [CACACA_negctrl_site403]”: 6.3.
The result for “AGATATAAGAAAAGCACACACACACTAGAAAAAAAA [CACACA_site5559]” reads 6.93; that for TAATTCTTGTAAAATGTGCGCAGTAGATATAGTTTT, 7.11; that for “ATATTTATTCAATCCAGTACATATTATATATTGTAT [XGTACX_site184]”, 6.44.
Take “ATAAAATTATATACGTGTACATATATATATTTATGT [XGTACX_site4653]”: the “gcPBM binding intensity (ln)” value was 6.44.
The result for “ATAATAAGAACTCAGTGTACTATCCTTTGAATTAAC [XGTACX_site8117]” reads 6.16; that for “AACGTCTTTTTTTTTTTTTTTCTTTTTTTTTTTATT [CACACA_negctrl_site303]”, 5.86.
The same measure for “TAATTATTTTCGGTACGTACTAATGTATATATAATT [XGTACX_site3895]”: 6.56; for “TAATAATTTTTTTTTTTTTTTTACGAAAATATGATT [GTGCAC_negctrl_site323]”: 5.96.
